Binding data for 9 molecules are collected here from article PMC8719881.

The chains behind the UniProt entries cited, without tags or fusion partners. Residues count along the entry.
UniProt O14949: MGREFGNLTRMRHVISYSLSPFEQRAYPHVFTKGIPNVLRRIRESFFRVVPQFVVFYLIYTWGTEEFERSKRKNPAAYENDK
UniProt P47985, residues 79-274: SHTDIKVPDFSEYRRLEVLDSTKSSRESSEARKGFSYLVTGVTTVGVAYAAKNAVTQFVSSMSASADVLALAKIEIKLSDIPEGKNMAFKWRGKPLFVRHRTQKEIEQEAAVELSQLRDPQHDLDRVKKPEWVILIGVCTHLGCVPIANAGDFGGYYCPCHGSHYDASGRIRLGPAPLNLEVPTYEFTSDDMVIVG
UniProt Q9Y4W6, residues 67-797: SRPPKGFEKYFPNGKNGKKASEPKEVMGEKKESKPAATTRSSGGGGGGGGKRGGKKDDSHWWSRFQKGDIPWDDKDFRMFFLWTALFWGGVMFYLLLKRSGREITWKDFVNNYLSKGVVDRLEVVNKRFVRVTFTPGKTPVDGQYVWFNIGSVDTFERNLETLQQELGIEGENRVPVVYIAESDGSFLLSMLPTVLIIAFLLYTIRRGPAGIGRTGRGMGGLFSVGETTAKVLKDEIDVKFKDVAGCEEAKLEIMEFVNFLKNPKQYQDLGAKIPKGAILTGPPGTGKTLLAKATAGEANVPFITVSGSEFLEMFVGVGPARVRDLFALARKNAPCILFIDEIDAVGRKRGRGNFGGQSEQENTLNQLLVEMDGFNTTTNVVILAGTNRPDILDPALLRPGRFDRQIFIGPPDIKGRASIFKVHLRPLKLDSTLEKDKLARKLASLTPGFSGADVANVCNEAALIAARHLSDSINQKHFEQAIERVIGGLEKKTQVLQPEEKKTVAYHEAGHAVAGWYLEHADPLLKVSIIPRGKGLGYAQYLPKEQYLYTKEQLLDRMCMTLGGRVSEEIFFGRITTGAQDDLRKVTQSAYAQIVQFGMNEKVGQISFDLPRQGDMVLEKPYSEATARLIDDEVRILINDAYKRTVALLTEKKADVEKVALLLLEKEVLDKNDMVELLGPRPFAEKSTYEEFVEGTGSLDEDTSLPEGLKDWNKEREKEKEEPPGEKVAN
UniProt P00156: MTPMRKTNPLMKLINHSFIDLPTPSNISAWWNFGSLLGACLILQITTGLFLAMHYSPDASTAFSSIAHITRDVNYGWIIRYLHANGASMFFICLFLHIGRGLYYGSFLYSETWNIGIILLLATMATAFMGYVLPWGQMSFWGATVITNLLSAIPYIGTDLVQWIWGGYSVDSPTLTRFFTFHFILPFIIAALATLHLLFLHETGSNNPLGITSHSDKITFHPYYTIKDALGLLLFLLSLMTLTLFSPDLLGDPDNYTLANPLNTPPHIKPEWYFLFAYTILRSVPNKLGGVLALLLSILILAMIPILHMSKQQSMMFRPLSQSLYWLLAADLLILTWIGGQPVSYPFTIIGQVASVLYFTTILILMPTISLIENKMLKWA

Where two headings read alike, the source gives them in different places. Results are given in words; binding and its absence hold for the method and conditions named. In cells and extracts the contact can be indirect. Some binding calls cover weakened binding; strength is not graded here. For some of these results: Sequences can lack the tags named with a protein.

Assay [1] addresses UQCRQ^FLAG (UniProt O14949). Kind of assay: co-IP; anti-FLAG M2 agarose; mitochondria lysed in 1% digitonin, 150 mM NaCl, 20 mM MgCl2, 50 mM Tris-HCl pH 7.4, 4°C; 10 washes with 0.3% digitonin; FLAG peptide elution; western blot; wild-type mitochondria as control.
Assay [2] deals with T1, UQCC1^FLAG (human) (UniProt Q9NVA1).
T1 sequence: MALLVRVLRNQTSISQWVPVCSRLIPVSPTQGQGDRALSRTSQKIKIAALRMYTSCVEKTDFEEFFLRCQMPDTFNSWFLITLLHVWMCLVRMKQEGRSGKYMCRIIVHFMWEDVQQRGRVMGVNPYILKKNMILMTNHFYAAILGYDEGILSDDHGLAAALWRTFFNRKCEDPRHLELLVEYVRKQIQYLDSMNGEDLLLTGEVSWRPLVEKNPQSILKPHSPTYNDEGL
Described as above.

Assay [3] has as its target T2, SMIM4^FLAG (human) (UniProt Q8WVI0).
T2 sequence: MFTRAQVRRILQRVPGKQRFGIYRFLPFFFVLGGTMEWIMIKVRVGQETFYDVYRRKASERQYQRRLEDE
The assay is described as above.

Assay [4] deals with T3, UQCC2^FLAG (human) (UniProt Q9BRT2).
T3 sequence: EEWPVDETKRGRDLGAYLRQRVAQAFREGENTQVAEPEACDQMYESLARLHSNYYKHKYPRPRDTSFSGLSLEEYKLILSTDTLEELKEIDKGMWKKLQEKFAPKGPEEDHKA
The description is as above.

For assay [5], the target named is RIESKE (human (endogenous in HEK293T)) (UniProt P47985). Kind of assay: co-IP; immunoisolation with anti-RIESKE antibody from purified mitochondria solubilised in digitonin-containing buffer; western blot. A general note: Immunoblotting shows a protein as a band on a membrane.
A further assay has as its target T4, UQCC3^FLAG (human) (UniProt Q6UW78).
T4 sequence: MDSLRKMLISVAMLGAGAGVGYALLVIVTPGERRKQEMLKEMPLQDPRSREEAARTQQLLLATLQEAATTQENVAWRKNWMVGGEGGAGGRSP
Kind of assay: co-IP; anti-FLAG M2 agarose; mitochondria lysed in 1% digitonin, 150 mM NaCl, 20 mM MgCl2, 50 mM Tris-HCl pH 7.4, 4°C; 10 washes with 0.3% digitonin; FLAG peptide elution; western blot; wild-type mitochondria as control.

Assay [6] has as its target C12ORF73^FLAG (human) (UniProt Q69YU5). The assay is described as above.
Assay [7] deals with T1, UQCC1^FLAG (human). Kind of assay: co-IP + native gel or EMSA; anti-FLAG immunoisolation from solubilised mitochondria, natively eluted complexes separated by BN-PAGE and second dimension SDS-PAGE, western blot; for UQCC1^FLAG from control and C12ORF73-depleted (siRNA) cells. (In general: Mobility shift assays separate free from complexed probe on a gel.)
The target of assay [8] is C12ORF73 (human (endogenous in HEK293T)) (UniProt Q69YU5). Kind of assay: co-IP; anti-SMIM4 or anti-C12ORF73 antibody cross-linked to protein A-Sepharose, control IgG; cellular extracts after 1 hr [35S]methionine labelling of mitochondrial translation products (emetine); elution with 0.1 M glycine pH 2.8; digital autoradiography and immunodetection.
In assay [9] the target is T5, SMIM4 (human (endogenous in HEK293T)) (UniProt Q8WVI0).
T5 sequence: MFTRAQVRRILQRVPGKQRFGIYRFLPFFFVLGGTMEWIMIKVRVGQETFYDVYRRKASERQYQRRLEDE
The assay is described as above.

Assay [10] concerns the target T1, UQCC1^FLAG (human). The assay is described as follows: co-IP + native gel or EMSA; anti-FLAG immunoisolation from solubilised mitochondria, natively eluted complexes separated by BN-PAGE and second dimension SDS-PAGE, western blot; for UQCC1^FLAG from control and C12ORF73-depleted (siRNA) cells. The source holds these as a separate data set.
Assay [11] deals with C12ORF73^FLAG (human) (UniProt Q69YU5). The description is as above.
For assay [12] the target is unchanged. The assay is described as follows: co-IP; anti-FLAG M2 agarose; mitochondria lysed in 1% digitonin, 150 mM NaCl, 20 mM MgCl2, 50 mM Tris-HCl pH 7.4, 4°C; 10 washes with 0.3% digitonin; FLAG peptide elution; western blot; wild-type mitochondria as control. This is another data set of the same source.
Another assay addresses T6, C12ORF62^FLAG (human) (UniProt Q96I36).
T6 sequence: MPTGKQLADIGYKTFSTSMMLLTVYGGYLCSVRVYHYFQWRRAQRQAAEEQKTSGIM
Described as above.

In another assay the target is T7, MITRAC7^FLAG (human) (UniProt Q8N5G0).
T7 sequence: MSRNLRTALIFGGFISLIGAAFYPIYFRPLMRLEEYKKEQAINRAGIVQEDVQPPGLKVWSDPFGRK
The description is as above.

The target of a further assay is T8, CMC1^FLAG (UniProt Q7Z7K0).
T8 sequence: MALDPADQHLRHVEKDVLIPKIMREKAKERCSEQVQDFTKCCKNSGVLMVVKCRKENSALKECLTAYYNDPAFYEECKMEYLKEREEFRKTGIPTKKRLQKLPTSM
The assay is described as above.

The next assay addresses T9, MITRAC12^FLAG (human) (UniProt Q9Y2R0).
T9 sequence: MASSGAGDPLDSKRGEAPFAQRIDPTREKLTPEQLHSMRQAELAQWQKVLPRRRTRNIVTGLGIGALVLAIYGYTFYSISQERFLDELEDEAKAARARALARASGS
The description is as above.

Assay [13] addresses UQCRQ^FLAG (UniProt O14949). The description is as above. This is another data set of the same source.
For assay [14], the target named is T1, UQCC1^FLAG (human). Described as above. The source holds these as a separate data set.
For assay [15], the target named is T3, UQCC2^FLAG (human). The description is as above. The source holds these as a separate data set.
The target of assay [16] is T2, SMIM4^FLAG (human). The description is as above. The source holds these as a separate data set.

C12ORF73 (from UniProt Q69YU5 1-71): the binding result is “binds weakly” in the assay with UQCRQ^FLAG [1]; “binds” with UQCC1^FLAG (human) [2]; “binds” with SMIM4^FLAG (human) [3]; “binds” in the assay with UQCC2^FLAG (human) [4]; “no binding” in assay [5].
On to RIESKE (from UniProt P47985 79-274), for which the binding entry in the assay with UQCC3^FLAG (human) is on record as “binds”; in the assay with UQCC1^FLAG (human) [2], “no binding”; with C12ORF73^FLAG (human) [6], “no binding”; in the assay with UQCC2^FLAG (human) [4], “no binding”.
Take AFG3L2 (from UniProt Q9Y4W6 67-797): the binding entry with SMIM4^FLAG (human) [3] was “binds”.
Consider “cytochrome b (CYTB) (from UniProt P00156 1-380)”, for which the binding entry (in the assay with UQCC1^FLAG (human) [7]; in assay [8]; in [9]) was “binds” in each case.

B1: UQCC2 (protein, UniProt Q9BRT2 14-126)
chain: EEWPVDETKRGRDLGAYLRQRVAQAFREGENTQVAEPEACDQMYESLARLHSNYYKHKYPRPRDTSFSGLSLEEYKLILSTDTLEELKEIDKGMWKKLQEKFAPKGPEEDHKA
B1: the binding entry with UQCC1^FLAG (human) [10], in the assay with C12ORF73^FLAG (human) [11] and with C12ORF73^FLAG (human) [12] was “binds” in each case.

B2: TMEM223 (protein, UniProt A0PJW6 1-202)
chain: MAAPWRRWPTGLLAVLRPLLTCRPLQGTTLQRDVLLFEHDRGRFFTILGLFCAGQGVFWASMAVAAVSRPPVPVQPLDAEVPNRGPFDLRSALWRYGLAVGCGAIGALVLGAGLLFSLRSVRSVVLRAGGQQVTLTTHAPFGLGAHFTVPLKQVSCMAHRGEVPAMLPLKVKGRRFYFLLDKTGHFPNTKLFDNTVGAYRSL
As for B2, the binding entry with C12ORF62^FLAG (human) is given as “binds”; with MITRAC7^FLAG (human) it was “binds weakly”; with CMC1^FLAG it was “no binding”; in the assay with MITRAC12^FLAG (human), “binds”.

B3: UQCC3 (protein, UniProt Q6UW78 1-93)
chain: MDSLRKMLISVAMLGAGAGVGYALLVIVTPGERRKQEMLKEMPLQDPRSREEAARTQQLLLATLQEAATTQENVAWRKNWMVGGEGGAGGRSP
On to B3, for which the binding entry in assay [5] was “binds”.

B4: SMIM4 (protein, UniProt Q8WVI0 1-70)
chain: MFTRAQVRRILQRVPGKQRFGIYRFLPFFFVLGGTMEWIMIKVRVGQETFYDVYRRKASERQYQRRLEDE
With B4, the binding entry is “binds” with C12ORF73^FLAG (human) [11]; “no binding” in [5]; “binds” with UQCRQ^FLAG [13]; “binds” with UQCC1^FLAG (human) [14]; “binds” in the assay with UQCC2^FLAG (human) [15].

B5: UQCC1 (protein, UniProt Q9NVA1 1-299)
chain: MALLVRVLRNQTSISQWVPVCSRLIPVSPTQGQGDRALSRTSQWPQMSQSRACGGSEQIPGIDIQLNRKYHTTRKLSTTKDSPQPVEEKVGAFTKIIEAMGFTGPLKYSKWKIKIAALRMYTSCVEKTDFEEFFLRCQMPDTFNSWFLITLLHVWMCLVRMKQEGRSGKYMCRIIVHFMWEDVQQRGRVMGVNPYILKKNMILMTNHFYAAILGYDEGILSDDHGLAAALWRTFFNRKCEDPRHLELLVEYVRKQIQYLDSMNGEDLLLTGEVSWRPLVEKNPQSILKPHSPTYNDEGL
B5: the binding result in the assay with C12ORF73^FLAG (human) [11] was “binds”; in [5] it was “no binding”; with UQCRQ^FLAG [13], “binds weakly”; with C12ORF73^FLAG (human) [12], “binds”; with SMIM4^FLAG (human) [16], “binds”.
